Enrichment ratio data for 153 variants are collected here from a collection of fitness landscapes (doi:10.1126/science.1257360).

The other results are listed elsewhere or left out. A value given as a limit tells only on which side of the number the result lay.

B1: PhoQ; a variant is named by its letters at X, in order, P23837 (parent)
chain: MKKLLRLFFPLSLRVRFLLATAAVVLVLSLAYGMVALIGYSVSFDKTTFRLLRGESNLFYTLAKWENNKLHVELPENIDKQSPTMTLIYDENGQLLWAQRDVPWLMKMIQPDWLKSNGFHEIEADVNDTSLLLSGDHSIQQQLQEVREDDDDAEMTHSVAVNVYPATSRMPKLTIVVVDTIPVELKSSYMVWSWFIYVLSANLLLVIPLLWVAAWWSLRPIEALAKEVRELEEHNRELLNPATTRELTSLVRNLNRLLKSERERYDKYRTTLTDLTHSLKTPLXXLQXXLRSLRSEKMSVSDAEPVMLEQISRISQQIGYYLHRASMRGGTLLSRELHPVAPLLDNLTSALNKVYQRKGVNISLDISPEISFVGEQNDFVEVMGNVLDNACKYCLEFVEISARQTDEHLYIVVEDDGPGIPLSKREVIFDRGQRVDTLRPGQGVGLAVAREITEQYEGKIVAGESMLGGARMEVIFGRQHSAPKDE

Variants of B1 are the subject of this test. In words: enrichment ratio after two sorts for PhoP signalling (ratio (wild type AVST 3.29)); higher = more functional. Conditions: with PhoP (E. coli).
In the case of LFWT, the enrichment ratio was not above 0.25.

PGQR: the enrichment ratio is not above 0.25. With AHDP the figure was not above 0.25; with EINW, not above 0.25. With ILDF the figure was not above 0.25; with LWQT, not above 0.25. Consider PNSQ, for which the enrichment ratio was not above 0.25. As for SCEP, the enrichment ratio was not above 0.25. Next, ARDS: not above 0.25; ARFT: not above 0.25.

QHYM: the enrichment ratio was determined as 3.6. On to MYEI, for which the enrichment ratio was not above 0.25.

For the variant PCCF, the enrichment ratio is not above 0.25.

As for KCNI, the enrichment ratio was not above 0.25. On to RMHV, for which the enrichment ratio is not above 0.25.

On to PWPE, for which the enrichment ratio was not above 0.25.

As to AASE, the enrichment ratio is not above 0.25. With NVFN, the enrichment ratio was not above 0.25.

With QYFY, the enrichment ratio was not above 0.25. As to VTAW, the enrichment ratio was not above 0.25. Next, IVWM: not above 0.25; IPMH: not above 0.25; QEGL: not above 0.25. With HWCT the figure was not above 0.25; with NEKC, not above 0.25. Next, TRMT: not above 0.25; EPVE: not above 0.25; SSTA: 6.29. For the variant KKTR, the enrichment ratio was not above 0.25. Next, HFRN: not above 0.25; KIRY: not above 0.25; IMNG: not above 0.25. Regarding QFRL, the enrichment ratio was not above 0.25.

Take RHIN: the enrichment ratio was not above 0.25.

TSMH: the enrichment ratio is 10.3.

On to SVFE, for which the enrichment ratio is not above 0.25.

AVFV: the enrichment ratio was not above 0.25. As for PVFH, the enrichment ratio was not above 0.25. Next, TNTE: not above 0.25; TKTG: not above 0.25; VMGN: not above 0.25.

As to RNSN, the enrichment ratio is not above 0.25. As for RNYD, the enrichment ratio is not above 0.25. VNVR: the enrichment ratio is not above 0.25. Take VCGT: the enrichment ratio was not above 0.25. In the case of SICY, the enrichment ratio was determined as 5.22. As for HWAA, the enrichment ratio was not above 0.25.

With KCHD, the enrichment ratio is not above 0.25. As to WYLD, the enrichment ratio is not above 0.25. Consider TWGN, for which the enrichment ratio was not above 0.25. For the variant HFYL, the enrichment ratio is not above 0.25.

For the variant HMRM, the enrichment ratio is not above 0.25. With MNLE the figure was 2.03; with IWLQ, not above 0.25. With WYNQ the figure was not above 0.25; with VWAL, not above 0.25.

As to HPHM, the enrichment ratio is not above 0.25. Regarding DAII, the enrichment ratio was not above 0.25. Next, PAYF: not above 0.25.

On to PHYW, for which the enrichment ratio was not above 0.25. With SSWL the figure was 10.6. As to PPFK, the enrichment ratio is not above 0.25. In the case of ATWW, the enrichment ratio is not above 0.25.

Take KFCF: the enrichment ratio was not above 0.25. In the case of QTFQ, the enrichment ratio turned out to be 3.61. With HCSG the figure was not above 0.25. As to WGKY, the enrichment ratio is not above 0.25. In the case of SFAM, the enrichment ratio was not above 0.25.

As to YKEL, the enrichment ratio was not above 0.25. With LVGH the figure was not above 0.25; with RWPF, not above 0.25. Next, DRSY: not above 0.25. Take VCAK: the enrichment ratio was not above 0.25. Take YMNE: the enrichment ratio was not above 0.25. Next, TFVR: not above 0.25; PVQM: not above 0.25; GPLW: not above 0.25. As for NQPS, the enrichment ratio was not above 0.25. On to AITS, for which the enrichment ratio stood at 9.53.

With FQSI, the enrichment ratio is not above 0.25. On to DRSI, for which the enrichment ratio is not above 0.25. For the variant HNQA, the enrichment ratio was not above 0.25. As to PCYT, the enrichment ratio was not above 0.25.

For the variant MYNE, the enrichment ratio is not above 0.25.

As for DYTW, the enrichment ratio was not above 0.25. As to WQIS, the enrichment ratio was not above 0.25. For the variant SDVL, the enrichment ratio is 1.44. With LCYW, the enrichment ratio is not above 0.25. Turning to VGLT, the enrichment ratio came to 4.92. MQKT: the enrichment ratio was not above 0.25. On to LNRN, for which the enrichment ratio is not above 0.25. In the case of YAKL, the enrichment ratio is not above 0.25. With ELQN the figure was not above 0.25; with VQEA, not above 0.25. Consider PGFP, for which the enrichment ratio was not above 0.25.

Take TVDK: the enrichment ratio was not above 0.25. With QLTL the figure was not above 0.25.

With RMWT, the enrichment ratio is not above 0.25. Regarding PYDW, the enrichment ratio is not above 0.25. With NFIR the figure was not above 0.25; with GNDV, not above 0.25; with VTIT, not above 0.25. Take MNAP: the enrichment ratio is not above 0.25. With FFWS the figure was not above 0.25.

Regarding FYAK, the enrichment ratio is not above 0.25. For the variant GLFP, the enrichment ratio was not above 0.25.

Take LFTC: the enrichment ratio is not above 0.25. Next, IIAD: not above 0.25; KEPV: not above 0.25.

Consider KKSQ, for which the enrichment ratio was not above 0.25.

On to KFQK, for which the enrichment ratio is not above 0.25. Next, VGRR: not above 0.25; ISTD: not above 0.25. Next, AIYF: not above 0.25; SRIT: not above 0.25. Next, DSMF: not above 0.25; MAAV: 5.06.

Take IWKA: the enrichment ratio is not above 0.25. Next, HLRD: not above 0.25. Regarding FHKI, the enrichment ratio was not above 0.25. Next, ALNW: not above 0.25; PIDW: not above 0.25; FITL: 0.497. On to GGGM, for which the enrichment ratio was not above 0.25. As for KVET, the enrichment ratio was not above 0.25. With SQAS the figure was 10.2. Next, ENYP: not above 0.25; PWYD: not above 0.25; QSES: not above 0.25. With NNAY the figure was not above 0.25; with FEHA, not above 0.25; with GYCE, not above 0.25. On to GQGY, for which the enrichment ratio was not above 0.25.

Consider AHPS, for which the enrichment ratio is not above 0.25. Next, ETDD: not above 0.25; NDLR: not above 0.25; INAV: 1.16. Next, SDGF: 0.624; EYVL: not above 0.25. In the case of DVAA, the enrichment ratio is not above 0.25. With AEES, the enrichment ratio is not above 0.25. With PWAE the figure was not above 0.25; with HDSP, not above 0.25; with KLRD, not above 0.25. As for VALT, the enrichment ratio is 2.18.

With VQND, the enrichment ratio is not above 0.25. With NHTH the figure was not above 0.25; with EIYY, not above 0.25; with RPKA, not above 0.25. Next, WITL: 0.966. Regarding IYGD, the enrichment ratio was not above 0.25. With NRHG the figure was not above 0.25. For VTIG, the enrichment ratio is not above 0.25.
